According to PubChem BioAssay (NCATS):
The inconclusive results got no clear call from the source; some entries with a clear call stand among them for comparison. Potencies of inconclusive entries are left out as doubtful fits. Calls of active or inactive are those of the source. Calls come from the whole dose curve; as a rule, active = well fitted inhibition curve with a large enough effect; inconclusive = small, poorly fitted or top-dose-only effect; inactive = no such curve, though single readings can be large or run the other way. Residues, ends and D or L forms follow the SMILES beside them.

Columns and labels:
[1] = qHTS Screen of the MIPE 4.0 Collection Against Ewings Sarcoma (RDES) (AID 1259252); note: nearly all actives have a fitted effect of over 35% in size
In short: (§1)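 Cells plated in serum-containing RPMI (5% FBS) and treated with compound dilutions for 48 h. Readout luminescent viability; normalization relied on vehicle (no inhibition) and media-only columns (full inhibition).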

[2] = qHTS Screen of the MIPE 4.0 Collection Against Ewings Sarcoma (TC71) (AID 1259253); note: nearly all actives have a fitted effect of over 40% in size
In short: as §1

[3] = qHTS Screen of the MIPE 4.0 Collection Against Ewings Sarcoma (EW8) (AID 1259255); note: nearly all actives have a fitted effect of over 35% in size
In short: as §1

[4] = qHTS Screen of the MIPE 4.0 Collection Against Ewings Sarcoma (TC32) (AID 1259256); note: nearly all actives have a fitted effect of over 45% in size
In short: as §1
Potency is the fitted concentration of half-maximal effect; tags give direction and shape of the fitted curve.

| SMILES | Potency [1] | Potency [2] | Potency [3] | Potency [4] |
| --- | --- | --- | --- | --- |
| COc1c(N2CCNC(C)C2)c(F)cc2c(=O)c(C(=O)O)cn(C3CC3)c12 (configuration not stated) | inactive | inactive | inactive | inactive |
| CO[C@H]1C=CO[C@@]2(C)Oc3c(C)c(O)c4c(O)c(c5c(c4c3C2=O)NC2(CCN(CC(C)C)CC2)N=5)=NC(=O)C(C)=CC=C[C@H](C)[C@H](O)[C@@H](C)[C@@H](O)[C@@H](C)[C@H](OC(C)=O)[C@H]1C | inconclusive [inhibitor, partial curve, poor fit] | inactive | inconclusive [inhibitor, single point] |  |
| Cc1ccc(C(C)(O)c2nc3ccccc3s2)c(C)c1 (configuration not stated) | inconclusive [inhibitor, single point] | inconclusive [inhibitor, single point] | inconclusive [inhibitor, single point] | inconclusive [inhibitor, single point] |
| COC(=O)[C@H](Cc1ccccc1)NC(=O)[C@@H](N)CC(=O)O (H-Asp-Phe-OMe) | inconclusive [inhibitor, single point] | inconclusive [inhibitor, single point] | inconclusive [inhibitor, single point] | inconclusive [inhibitor, single point] |
| O=C(O)c1nc(=O)[nH]c(=O)[nH]1 | inactive | inconclusive [inhibitor, partial curve, poor fit] | inactive |  |
| Cn1cc(C=C2C(=O)Nc3cccnc32)c2ccccc21 | inconclusive [inhibitor, single point] | inactive | inconclusive [inhibitor, partial curve, poor fit] | inactive |
| O=C(c1cncc(Br)c1)N1CCC(N2CCCC2)CC1 | inactive | inactive | inactive |  |
| CC1CCN(c2cc(N3CCN(C)CC3)ccc2NC(=O)c2cc(C#N)c[nH]2)CC1 | active: 26.4 µM | inconclusive [inhibitor, single point] | inconclusive [inhibitor, single point] | inconclusive [inhibitor, partial curve, poor fit] |
| CC(=O)N1CCN(c2ccc(OCc3nn(C)c(C)c3-c3cccc4c(CCCOc5cc(C)c(Cl)c(C)c5)c(C(=O)O)n(Cc5cccnc5)c34)cc2)CC1 | active: 20.9 µM | active: 20.9 µM | inconclusive [inhibitor, single point] | active: 20.9 µM |
| Clc1ccc(CCC(Cn2ccnc2)Sc2c(Cl)cccc2Cl)cc1 (configuration not stated) | inactive | inconclusive [inhibitor, single point] | inconclusive [inhibitor, single point] | inactive |
| O=c1[nH]c(=O)n([C@H]2C[C@@H](O)[C@@H](CO)O2)cc1F | active: 0.059 µM | active: 0.0935 µM | active: 0.059 µM | active: 0.059 µM |
| O=C(NOCC(O)CO)c1cc(Br)c(F)c(F)c1Nc1ccc(I)cc1F (configuration not stated) | inconclusive [inhibitor, single point] | inconclusive [inhibitor, single point] | inconclusive [inhibitor, single point] | inconclusive [inhibitor, partial curve] |
| Cc1noc(-c2ccc(CSCCC(=O)O)cc2)c1NC(=O)OC(C)c1ccccc1Cl (configuration not stated) | inactive | inactive | inactive | inactive |
| Cc1cnc(C(=O)NCCc2ccc(S(=O)(=O)NC(=O)NC3CCCCC3)cc2)cn1 | inconclusive [inhibitor, single point] | inconclusive [inhibitor, partial curve] | inconclusive [inhibitor, partial curve] | inconclusive [inhibitor, partial curve] |
| O=C(CO)N1CCC(c2[nH]nc(-c3ccc(Cl)cc3)c2-c2ccncn2)CC1 | inactive | inactive | inconclusive [inhibitor, full curve, poor fit] | inconclusive [inhibitor, full curve, poor fit] |
